# These are yes or no findings as the source states them, for the method shown. In cells and extracts the contact can be indirect. Some results given as binding are weak or reduced against the parent protein; the word gives no strength.
# T1: Vps33a (mouse) (UniProt Q9D2N9)
# T1 sequence: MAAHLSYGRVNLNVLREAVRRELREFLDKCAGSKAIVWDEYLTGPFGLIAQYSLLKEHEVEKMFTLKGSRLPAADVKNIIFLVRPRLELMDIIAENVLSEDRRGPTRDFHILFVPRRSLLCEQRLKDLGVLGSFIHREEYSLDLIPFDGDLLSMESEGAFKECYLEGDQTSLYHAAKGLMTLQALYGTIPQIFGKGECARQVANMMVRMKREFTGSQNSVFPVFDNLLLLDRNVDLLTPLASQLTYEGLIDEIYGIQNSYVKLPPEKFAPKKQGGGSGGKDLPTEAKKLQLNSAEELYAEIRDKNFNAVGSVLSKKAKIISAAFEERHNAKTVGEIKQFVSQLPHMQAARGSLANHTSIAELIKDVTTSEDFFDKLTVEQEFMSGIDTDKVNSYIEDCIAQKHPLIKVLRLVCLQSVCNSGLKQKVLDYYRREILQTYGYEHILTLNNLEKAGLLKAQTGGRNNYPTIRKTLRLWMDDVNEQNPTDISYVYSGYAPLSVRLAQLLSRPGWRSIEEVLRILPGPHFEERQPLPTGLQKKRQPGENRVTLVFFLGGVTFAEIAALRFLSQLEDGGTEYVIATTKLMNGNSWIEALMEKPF
# T2: Vps39 (mouse) (UniProt Q8R5L3)
# T2 sequence: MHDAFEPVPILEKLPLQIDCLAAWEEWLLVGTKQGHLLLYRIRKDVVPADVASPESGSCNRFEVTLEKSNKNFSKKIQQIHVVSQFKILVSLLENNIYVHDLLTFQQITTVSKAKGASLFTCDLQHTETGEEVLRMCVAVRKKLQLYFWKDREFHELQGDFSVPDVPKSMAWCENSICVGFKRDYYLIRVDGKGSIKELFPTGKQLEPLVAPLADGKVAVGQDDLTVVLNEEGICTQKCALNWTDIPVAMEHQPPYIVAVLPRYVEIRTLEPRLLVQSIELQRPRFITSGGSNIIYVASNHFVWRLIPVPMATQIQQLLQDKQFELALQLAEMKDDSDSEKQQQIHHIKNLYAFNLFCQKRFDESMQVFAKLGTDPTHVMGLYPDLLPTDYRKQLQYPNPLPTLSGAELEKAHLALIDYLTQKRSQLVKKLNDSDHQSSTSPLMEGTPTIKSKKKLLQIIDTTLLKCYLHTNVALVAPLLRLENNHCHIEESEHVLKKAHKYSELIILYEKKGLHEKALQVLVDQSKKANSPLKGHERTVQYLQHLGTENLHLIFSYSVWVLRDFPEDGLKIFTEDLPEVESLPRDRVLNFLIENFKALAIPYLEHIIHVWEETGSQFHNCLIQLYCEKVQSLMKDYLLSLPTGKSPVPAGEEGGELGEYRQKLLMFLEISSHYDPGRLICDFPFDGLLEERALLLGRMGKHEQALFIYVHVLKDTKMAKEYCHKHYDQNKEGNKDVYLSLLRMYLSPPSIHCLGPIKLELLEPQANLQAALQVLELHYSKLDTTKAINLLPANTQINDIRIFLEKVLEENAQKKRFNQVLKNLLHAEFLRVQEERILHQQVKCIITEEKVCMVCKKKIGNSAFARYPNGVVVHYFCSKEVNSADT
# T3: Vamp4 (mouse) (UniProt O70480)
# T3 sequence: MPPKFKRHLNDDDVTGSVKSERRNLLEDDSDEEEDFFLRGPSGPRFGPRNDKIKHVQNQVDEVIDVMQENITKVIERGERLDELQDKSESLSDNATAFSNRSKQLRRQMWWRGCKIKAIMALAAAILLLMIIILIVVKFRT
# T4: Vps16 (mouse) (UniProt Q920Q4)
# T4 sequence: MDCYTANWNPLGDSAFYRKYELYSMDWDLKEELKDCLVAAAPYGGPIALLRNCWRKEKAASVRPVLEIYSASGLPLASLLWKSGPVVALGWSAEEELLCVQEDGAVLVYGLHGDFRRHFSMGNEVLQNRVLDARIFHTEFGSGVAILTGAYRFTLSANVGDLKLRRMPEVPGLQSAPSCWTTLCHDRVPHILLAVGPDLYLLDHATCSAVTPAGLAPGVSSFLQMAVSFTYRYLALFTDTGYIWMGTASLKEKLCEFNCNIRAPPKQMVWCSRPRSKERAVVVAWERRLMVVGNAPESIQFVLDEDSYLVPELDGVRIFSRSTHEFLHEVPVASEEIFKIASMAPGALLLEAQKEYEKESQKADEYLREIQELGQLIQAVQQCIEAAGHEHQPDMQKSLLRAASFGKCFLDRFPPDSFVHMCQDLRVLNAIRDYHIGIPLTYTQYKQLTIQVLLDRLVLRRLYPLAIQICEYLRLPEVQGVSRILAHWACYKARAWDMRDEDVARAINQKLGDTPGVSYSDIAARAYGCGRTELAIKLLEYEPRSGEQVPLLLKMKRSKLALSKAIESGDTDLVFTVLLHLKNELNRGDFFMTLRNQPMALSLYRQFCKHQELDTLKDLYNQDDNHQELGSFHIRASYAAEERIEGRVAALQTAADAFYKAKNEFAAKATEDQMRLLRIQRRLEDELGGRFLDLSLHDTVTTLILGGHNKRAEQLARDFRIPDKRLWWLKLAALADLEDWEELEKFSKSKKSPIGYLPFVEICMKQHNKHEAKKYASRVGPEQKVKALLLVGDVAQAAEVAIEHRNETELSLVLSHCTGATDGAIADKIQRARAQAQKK
# B1: Endosomal solute carrier family 9 member A9 (SLC9A9) (protein, UniProt Q8BZ00 1-644)
# chain: MAGQLRFTSGKDEDHFQHQGAVELLAFNFLLILTILTIWLFKNHRFRFLHETGGAMVYGLIMGLILRYATAPTDIDSGTVYNCGNLFFSPSTLLVNITDQVYEYKYQREINQHNISPHQGNAILEKMTFDPEIFFNVLLPPIIFHAGYSLKKRHFFQNLGSILTYAFLGTAISCVVIGLIMYGFVKAMVHAGQLKSGDFHFTDCLFFGSLMSATDPVTVLAIFHELHVDPDLYTLLFGESVLNDAVAIVLTYSISIYSPKENPNAFDTAAFFQSVGNFLGIFAGSFAMGSAYAVVTALLTKFTKLREFPMLETGLFFLLSWSAFLSAEAAGLTGIVAVLFCGVTQAHYTYNNLSSDSKLRTKQLFEFMNFLAENVIFCYMGLALFTFQNHIFNALFILGAFLAIFVARACNIYPLSFLLNLGRKQKIPWNFQHMMMFSGLRGAIAFALAIRNTESQPKQMMFTTTLLLVFFTVWVFGGGTTPMLTWLQIRVGVDLDESLKEEPSSQQEANKLDKNMTKTESAQLFRMWYGFDHKYLKPILTHSGPPLTTTLPAWCGPVSRLLTSPQAYGEQLKEDDVECIVNQDELAMNYQEQSPSPSSPTTKLALDQKSSGQTPGKENIYEGDLGLGGYDLKLEQTRGQPQMD
# Tests used:
# Test in all cases: co-IP; HEK293T cells co-transfected with SLC9A9 and the partner plasmid, collected 36 h after transfection; lysed in 50 mM Tris-HCl pH 7.4, 1 mM EDTA, 150 mM NaCl, 1% Triton; protein A/G Plus-Agarose and 3 ug antibody, 12 h at 4 C, 5 washes; immunoblot; some samples with amiloride treatment (interaction inhibited)
# Vps33a (mouse) = biological target: T1, Vps33a (mouse)
# Vps39 (mouse) = biological target: T2, Vps39 (mouse)
# Vamp4 (mouse) = biological target: T3, Vamp4 (mouse)
# Vps16 (mouse) = biological target: T4, Vps16 (mouse)
binder,measurement,setting,value
B1,binding,Vps33a (mouse),binds
same,binding,Vps39 (mouse),binds
same,binding,Vamp4 (mouse),no binding
same,binding,Vps16 (mouse),binds
